Data taken from the supplement of paper PMC4604168 (melanoma cell lines).
The list shows a part of the results. Single values are uncertain, as repeats are few or missing.

Tests used:
Assay in all cases: cell count relative to DMSO control; melanoma cells; higher = more viable cells
Settings in all cases: library dose: standard library concentration; 72 h
G361 = test system: G361
IPC-298 = test system: IPC-298
IST-MEL1 = test system: IST-MEL1
LB2518-MEL = test system: LB2518-MEL
LOXIMVI = test system: LOXIMVI
MEL-HO = test system: MEL-HO
MZ2-MEL = test system: MZ2-MEL
MeWo = test system: MeWo
RPMI7951 = test system: RPMI7951
RVH-421 = test system: RVH-421
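Also: cells treated in 1,536-well plates, then fixed and DAPI-stained, with nuclei counted from automated high-throughput microscope images.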

Structure (SMILES) | cell count (G361) [%] | cell count (IPC-298) [%] | cell count (IST-MEL1) [%] | cell count (LB2518-MEL) [%] | cell count (LOXIMVI) [%] | cell count (MEL-HO) [%] | cell count (MZ2-MEL) [%] | cell count (MeWo) [%] | cell count (RPMI7951) [%] | cell count (RVH-421) [%]
Cn1c(Nc2ccc(C(F)(F)F)cc2)nc2cc(Oc3ccnc(-c4ncc(C(F)(F)F)[nH]4)c3)ccc21 + COc1cc2c(Oc3ccc4[nH]c(C)cc4c3F)ncnc2cc1OCCCN1CCCC1 [cediranib] (first compound 0.4 µM, partner dose 2 µM) | 27.9 | 48.1 | 79.7 | 33.9 | 33.7 | 69.5 | 67.9 | 70.9 | 38.9 | 58.6
Cn1c(Nc2ccc(C(F)(F)F)cc2)nc2cc(Oc3ccnc(-c4ncc(C(F)(F)F)[nH]4)c3)ccc21 + COc1cc(Nc2ncc(F)c(Nc3ccc4c(n3)NC(=O)C(C)(C)O4)n2)cc(OC)c1OC [Tamatinib] (first compound 0.4 µM, partner dose 2 µM) | 63 | 101 | 62.3 | 81.3 | 10.3 | 85.2 | 92.4 | 68.9 | 17 | 69.3
COCC[n+]1c2c(n(Cc3cnccn3)c1C)C(=O)c1ccccc1C2=O + CCN(CC)CCCCNc1ncc2cc(-c3cc(OC)cc(OC)c3)c(NC(=O)NC(C)(C)C)nc2n1 [PD173074] (first compound 0.002 µM, partner dose 0.5 µM) | 99.2 | 40.6 | 48.7 | 30.5 | 251 | 101 | 32.8 | 47.8 | 39.9 | 104
Clc1ccc(Nc2nnc(Cc3ccncc3)c3ccccc23)cc1 [vatalanib] + CN(C)S(=O)(=O)c1ccc2c(c1)/C(=C/c1cc3c([nH]1)CCCC3)C(=O)N2 [SU6656] (first compound 10 µM, partner dose 2 µM) | 45.5 | 54.4 | 63.7 | 73.2 | 63.5 | 57.9 | 78.6 | 59.8 | 46.1 | 80.2
C#Cc1cccc(Nc2ncnc3cc(OCCOC)c(OCCOC)cc23)c1 [erlotinib] + CN(NC(=O)CC(=O)NN(C)C(=S)c1ccccc1)C(=S)c1ccccc1 [STA4783] (first compound 4 µM, partner dose 0.03 µM) | 34.1 | 56.3 | 30.6 | 24.5 | 54.9 | 67.3 | 78.4 | 21.3 | 48.8 | 63.5
C#Cc1cccc(Nc2ncnc3cc(OCCOC)c(OCCOC)cc23)c1 [erlotinib] + COc1cc2c(Oc3ccc4[nH]c(C)cc4c3F)ncnc2cc1OCCCN1CCCC1 [cediranib] (first compound 4 µM, partner dose 2 µM) | 84.6 | 74.9 | 105 | 70.5 | 48.4 | 83.5 | 104 | 62.9 | 72.5 | 62.1
C#Cc1cccc(Nc2ncnc3cc(OCCOC)c(OCCOC)cc23)c1 [erlotinib] + Cn1c(Nc2ccc(C(F)(F)F)cc2)nc2cc(Oc3ccnc(-c4ncc(C(F)(F)F)[nH]4)c3)ccc21 [CHIR265] (first compound 4 µM, partner dose 0.4 µM) | 26.3 | 36.9 | 68.2 | 31.8 | 116 | 61.8 | 53.2 | 55.7 | 35.1 | 46.7
OCc1c[nH]c2ccccc12 [Indole-3-carbinol] + COc1cc2ncnc(Nc3ccc(Oc4ccccc4)cc3)c2cc1OC [SrcI1] (first compound 4 µM, partner dose 10 µM) | 70.6 | 84.6 | 88.5 | 138 | 105 | 95.5 | 81.6 | 88 | 60.9 | 108
Clc1ccc(Nc2nnc(Cc3ccncc3)c3ccccc23)cc1 [vatalanib] + O=C(CCCCCCC(=O)Nc1ccccc1)NO [vorinostat] (first compound 10 µM, partner dose 0.4 µM) | 59 | 69.6 | 67.5 | 64.6 | 70.4 | 64.8 | 67.6 | 53.4 | 44 | 76.3
Nc1cccc2c1CN(C1CCC(=O)NC1=O)C2=O (stereo not given) [lenalidomide] + c1cc(-c2cnn3cc(-c4ccc(OCCN5CCCCC5)cc4)cnc23)ccn1 [Dorsomorphin] (first compound 5 µM, partner dose 2 µM) | 60.2 | 92.8 | 94.6 | 68.5 | 111 | 96.2 | 76.2 | 81.1 | 84.5 | 101
Nc1cccc2c1CN(C1CCC(=O)NC1=O)C2=O (stereo not given) [lenalidomide] + COc1cc2ncnc(Nc3ccc(Oc4ccccc4)cc3)c2cc1OC [SrcI1] (first compound 5 µM, partner dose 10 µM) | 63.5 | 74.8 | 85.8 | 102 | 59 | 83.3 | 67.7 | 81.2 | 55.1 | 104
O=C(CCCCCCC(=O)Nc1ccccc1)NO [vorinostat] + CC1(C)NC(=O)N(c2ccc([N+](=O)[O-])c(C(F)(F)F)c2)C1=O [nilutamide] (first compound 0.4 µM, partner dose 5 µM) | 68.7 | 104 | 104 | 76.7 | 101 | 97.7 | 104 | 97.5 | 103 | 90.4
Nc1cccc2c1CN(C1CCC(=O)NC1=O)C2=O (stereo not given) [lenalidomide] + COc1ccc(COc2ccc(Cc3cnc(N)nc3N)cc2OC)cc1 [GW2580] (first compound 5 µM, partner dose 5 µM) | 82.1 | 88.9 | 99.6 | 89.9 | 85 | 98.4 | 101 | 84.5 | 80.2 | 111
O=C(CCCCCCC(=O)Nc1ccccc1)NO [vorinostat] + CCc1ccc(CCOc2ccc(CC3SC(=O)NC3=O)cc2)nc1 [pioglitazone] (first compound 0.4 µM, partner dose 10 µM) | 65.7 | 97.5 | 92.8 | 81.6 | 84.2 | 88.1 | 97.4 | 86.3 | 84 | 97.4
OCc1c[nH]c2ccccc12 [Indole-3-carbinol] + Cc1ccc(NC(=O)c2cccc(N(C)C)c2)cc1NC(=O)c1ccc(O)cc1 [ZM336372] (first compound 4 µM, partner dose 10 µM) | 108 | 104 | 66.3 | 110 | 80.7 | 98.6 | 104 | 93.1 | 63.9 | 111
OCc1c[nH]c2ccccc12 [Indole-3-carbinol] + CN(C)S(=O)(=O)c1ccc2c(c1)/C(=C/c1cc3c([nH]1)CCCC3)C(=O)N2 [SU6656] (first compound 4 µM, partner dose 2 µM) | 75.1 | 81.7 | 87 | 92.2 | 86.8 | 92.7 | 120 | 83.7 | 66.2 | 89.6
Nc1cccc2c1CN(C1CCC(=O)NC1=O)C2=O (stereo not given) [lenalidomide] + C[C@@H]1CCN(C(=O)CC#N)C[C@@H]1N(C)c1ncnc2[nH]ccc12 [CP690550] (first compound 5 µM, partner dose 5 µM) | 86.8 | 90.5 | 82.6 | 108 | 126 | 97.1 | 117 | 106 | 140 | 89.6
COCC[n+]1c2c(n(Cc3cnccn3)c1C)C(=O)c1ccccc1C2=O + Oc1nc(-c2ccc(C(F)(F)F)cc2)nc2c1CSCC2 [XAV939] (first compound 0.002 µM, partner dose 10 µM) | 53.9 | 46.9 | 44.8 | 27.7 | 84 | 78.4 | 12.6 | 81.9 | 34.6 | 106
COCC[n+]1c2c(n(Cc3cnccn3)c1C)C(=O)c1ccccc1C2=O + COC(=O)c1sccc1S(=O)(=O)Nc1ccc(Nc2ccccc2)cc1OC [GSK0660] (first compound 0.002 µM, partner dose 5 µM) | 83.5 | 73 | 54.2 | 50.7 | 114 | 100 | 39.8 | 93.2 | 37.2 | 94.5
Clc1ccc(Nc2nnc(Cc3ccncc3)c3ccccc23)cc1 [vatalanib] + O=C1NC(=O)/C(=C/c2ccc(-c3ccc(F)cc3O)o2)S1 [AS252424] (first compound 10 µM, partner dose 5 µM) | 63.6 | 71.7 | 83.8 | 99.6 | 66.8 | 64.1 | 82.4 | 70.4 | 77.7 | 84
COCC[n+]1c2c(n(Cc3cnccn3)c1C)C(=O)c1ccccc1C2=O + COc1ccc(COc2ccc(Cc3cnc(N)nc3N)cc2OC)cc1 [GW2580] (first compound 0.002 µM, partner dose 5 µM) | 82.2 | 85.4 | 97.6 | 102 | 94.3 | 105 | 69.1 | 91.1 | 110 | 83
C#Cc1cccc(Nc2ncnc3cc(OCCOC)c(OCCOC)cc23)c1 [erlotinib] + Cc1ccc(NC(=O)c2cccc(N(C)C)c2)cc1NC(=O)c1ccc(O)cc1 [ZM336372] (first compound 4 µM, partner dose 10 µM) | 68.6 | 88.2 | 88.1 | 48.8 | 68.2 | 80.7 | 91.5 | 77.5 | 66.3 | 74.1
Nc1cccc2c1CN(C1CCC(=O)NC1=O)C2=O (stereo not given) [lenalidomide] + O=C(O)C(=O)Nc1sc2c(c1C(=O)O)CCNC2 [TCS401] (first compound 5 µM, partner dose 8.33333 µM) | 87.4 | 97.5 | 109 | 117 | 137 | 109 | 138 | 96.6 | 105 | 104
COCC[n+]1c2c(n(Cc3cnccn3)c1C)C(=O)c1ccccc1C2=O + CCCCCCCCCCCC1=C(O)C(=O)C=C(O)C1=O [Embelin] (first compound 0.002 µM, partner dose 6 µM) | 45.3 | 45.7 | 50.6 | 36.3 | 74.2 | 66.6 | 33.9 | 86.6 | 42.4 | 78.8
